Data from the supplement of paper PMC4967469.

Legend:
Assay in all cases: Viability of human cancer cell lines after 72 h of drug (GDSC screen)
SB-505124 = compound: Cc1cccc(-c2[nH]c(C(C)(C)C)nc2-c2ccc3c(c2)OCO3)n1 [SB-505124]; details: top dose 10 µM; top dose inferred
Protocol: (§1)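 Human cancer cell lines in 384-well plates, medium with 10% serum, drug for 72 h over a 256-fold dose range (nine 2-fold or five 4-fold steps up to the top dose). Adherent lines were fixed and stained with the nucleic acid dye Syto60, suspension lines read with resazurin; signal relative to control wells, capped at 0 and 100%. One two-parameter sigmoid per drug and line, fitted in a mixed model over all curves with the slope shared within a line.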

PI-103 = compound: Oc1cccc(-c2nc(N3CCOCC3)c3oc4ncccc4c3n2)c1 [PI-103]; details: top dose 10.24 µM
Protocol: as §1

GSK690693 = compound: CCn1c(-c2nonc2N)nc2c(C#CC(C)(C)O)ncc(OC[C@H]3CCCNC3)c21 [GSK690693]; details: top dose 10.24 µM; top dose inferred
Protocol: as §1

Tretinoin = compound: CC1=C(/C=C/C(C)=C/C=C/C(C)=C/C(=O)O)C(C)(C)CCC1 [Tretinoin]; details: top dose 10 µM; top dose inferred
Protocol: as §1

UNC0638 = compound: COc1cc2c(NC3CCN(C(C)C)CC3)nc(C3CCCCC3)nc2cc1OCCCN1CCCC1 [UNC0638]
Protocol: as §1

WH-4-023 = compound: COc1ccc(N(C(=O)Oc2c(C)cccc2C)c2ccnc(Nc3ccc(N4CCN(C)CC4)cc3)n2)c(OC)c1 [WH-4-023]; details: top dose 5.12 µM; top dose inferred
Protocol: as §1

BX-795 = compound: O=C(NCCCNc1nc(Nc2cccc(NC(=O)N3CCCC3)c2)ncc1I)c1cccs1 [BX-795]; details: top dose 5 µM; top dose inferred
Protocol: as §1

[1] = top dose 20 µM, screen: GDSC drug entry 1236, top dose inferred
[2] = top dose 40 µM, screen: GDSC drug entry 245

Cell Line	AUC (SB-505124)	IC50 (SB-505124)	AUC (PI-103)	IC50 (PI-103)	AUC (GSK690693)	IC50 (GSK690693)	AUC (Tretinoin)	IC50 (Tretinoin)	AUC (UNC0638; [1])	IC50 (UNC0638; [1])	AUC (UNC0638; [2])	IC50 (UNC0638; [2])	AUC (WH-4-023)	IC50 (WH-4-023)	AUC (BX-795)	IC50 (BX-795)
NU-DUL-1 (B-cell lymphoma, suspension)	0.992	> 10 µM	0.041	< 0.04 µM	0.105	0.0505 µM	0.877	6.76 µM	0.848	10.7 µM	0.551	3.34 µM	0.544	0.411 µM	0.79	1.76 µM
OCI-AML2 (acute myeloid leukaemia, suspension)	0.994	> 10 µM	0.775	3.07 µM	0.994	> 10.2 µM	0.933	9.51 µM	0.804	7.15 µM	0.742	9.85 µM	0.995	> 5.12 µM	0.721	1.09 µM
OCI-AML3 (acute myeloid leukaemia, suspension)	0.99	> 10 µM	0.264	0.153 µM	0.94	> 10.2 µM	0.776	3.43 µM	0.739	5.32 µM	0.699	8.25 µM	0.99	> 5.12 µM	0.939	> 5 µM
OCI-AML5 (acute myeloid leukaemia, suspension)	0.986	> 10 µM	0.183	0.0806 µM	0.875	8.57 µM	0.298	0.179 µM	0.866	15.4 µM	0.596	4.48 µM	0.987	> 5.12 µM	0.822	2.59 µM
OCI-LY-19 (B-cell lymphoma, suspension)	0.962	> 10 µM	0.102	< 0.04 µM	0.705	2.3 µM	0.964	> 10 µM	0.874	16.9 µM	0.609	4.85 µM	0.969	> 5.12 µM	0.861	3.71 µM
OCI-M1 (acute myeloid leukaemia, suspension)	0.993	> 10 µM	0.111	0.0593 µM	0.788	3.38 µM	0.966	> 10 µM	0.995	> 20 µM	0.622	4.96 µM	0.994	> 5.12 µM	0.769	1.47 µM
OCUB-M (breast, adherent)	0.983	> 10 µM	0.401	0.357 µM	0.198	0.096 µM	0.946	> 10 µM	0.832	10.5 µM	0.773	13.5 µM	0.941	> 5.12 µM	0.919	> 5 µM
OMC-1 (cervix, adherent)	0.98	> 10 µM	0.596	1.19 µM	0.921	> 10.2 µM	0.986	> 10 µM	0.986	> 20 µM	0.864	37.6 µM	0.986	> 5.12 µM	0.956	> 5 µM
ONS-76 (medulloblastoma, adherent)	0.971	> 10 µM	0.457	0.483 µM	0.881	> 10.2 µM	0.982	> 10 µM	0.814	11.9 µM	0.712	10.5 µM	0.863	5.02 µM	0.84	3.83 µM
OPM-2 (myeloma, suspension)	0.992	> 10 µM	0.447	0.473 µM	0.987	> 10.2 µM	0.984	> 10 µM	0.99	> 20 µM	0.628	5.23 µM	0.905	4.63 µM	0.913	4.92 µM
OS-RC-2 (kidney, adherent)	0.945	> 10 µM	0.887	> 10.2 µM	0.846	> 10.2 µM	0.939	> 10 µM	0.822	19.4 µM	0.767	21.9 µM	0.414	0.167 µM	0.94	> 5 µM
OVCAR-4 (ovary, adherent)	0.95	> 10 µM	0.66	2.22 µM	0.971	> 10.2 µM	0.923	> 10 µM	0.8	15.9 µM	0.753	19.7 µM	0.849	> 5.12 µM	0.873	> 5 µM
P30-OHK (lymphoblastic leukaemia, suspension)	0.943	> 10 µM	0.113	0.0504 µM	0.503	0.653 µM	0.985	> 10 µM	0.624	2.58 µM	0.444	1.81 µM	0.96	> 5.12 µM	0.666	0.83 µM
P31-FUJ (acute myeloid leukaemia, suspension)	0.996	> 10 µM	0.899	7.46 µM	0.995	> 10.2 µM	0.995	> 10 µM	0.86	10.7 µM	0.798	14.1 µM	0.994	> 5.12 µM	0.966	> 5 µM
P32-ISH (Burkitt lymphoma, suspension)	0.982	> 10 µM	0.099	0.0558 µM	0.774	3.06 µM	0.977	> 10 µM	0.815	7.73 µM	0.639	5.46 µM	0.904	3.77 µM	0.749	1.29 µM
PSN1 (pancreas, adherent)	0.991	> 10 µM	0.527	0.748 µM	0.981	> 10.2 µM	0.96	> 10 µM	0.811	8.6 µM	0.606	4.64 µM	0.851	3.01 µM	0.846	2.82 µM
QIMR-WIL (acute myeloid leukaemia, suspension)	0.975	> 10 µM	0.136	0.0484 µM	0.799	4.76 µM	0.956	> 10 µM	0.795	8.97 µM	0.715	9.9 µM	0.907	> 5.12 µM	0.877	4.77 µM

Lines with a small IC50 respond at low doses; where the fit passes the top or lowest dose, that dose stands as a limit. AUC sums up the same curve from the lowest dose to the 256-fold higher top dose; values near 1 show little effect. For some assays here: The top dose, if marked as inferred, was derived from the fitted curves, not read from the paper. For some assays here: An entry number marks a drug with two screens in the source, which often give different values.
